Results taken from PubChem BioAssay AID1671194 (National Center for Advancing Translational Sciences (NCATS), 2021).
Hit rate of the full screen: of about 140,000 compounds, about 240 (0.17%) were called active. The shares of active, inactive and inconclusive entries below differ from those in the screen. Calls follow the shape of the dose curve; as a rule, active = well fitted inhibition curve with a large enough effect; inconclusive = small, poorly fitted or top-dose-only effect; inactive = no such curve, though single readings can be large or run the other way. Where the call is inconclusive, the potency comes from a doubtful curve fit.

Experiment: Primary qHTS assay for inhibitors of alpha-synuclein gene (SNCA) expression; also: nearly all actives have a fitted effect of over 45% in size;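 as to activity change, negative = inhibition: plate controls were DMSO cells for no effect and cell-free wells for full effect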
Details: HEK-293 SNCA-luciferase knock-in, luminescence, 24 h; activity change, negative = inhibition: at 57.2 µM (top of the series) unless noted
Potency is read from the fitted curve at half-maximal effect; tags tell the direction and shape of the fitted curve.

Compound	activity change, negative = inhibition	Potency
O=C1NC2(CCN(CC3CCCC3)CC2)Oc2ccccc21	inactive: 6.76% [at 87.6 µM]	
COc1ccc(CCNC(=O)c2ccc3c(c2)c(C)c(C)n3Cc2ccccc2)c(OC)c1OC		inconclusive: 39.8 µM [inhibitor, single point]
CN(CCc1ccccn1)C(=O)CCc1ccc2c(c1)CN(S(C)(=O)=O)CCO2		inconclusive: 39.8 µM [inhibitor, single point]
Cc1ccc(CCNC(=O)C2CC(=O)N(CCc3ccccc3)C2)cc1 (stereo not drawn)		inconclusive: 15.8 µM [inhibitor, partial curve]
Cc1ncoc1C(=O)N1CCOC(Cc2cccc(C(F)(F)F)c2)C1 (stereo not drawn)	inactive: 15.2%	
COc1ccc2cc(C3CN(C(=O)CNC(=O)C(C)C)CCO3)ccc2c1 (stereo not drawn)	inactive: 63.3%	
COc1ccc(C(=O)N2CCc3ccc(C(=O)NCc4ccccc4C)cc32)cc1		inconclusive: 8.91 µM [inhibitor, single point]
NC(=O)NCCC(=O)N1CCc2onc(-c3cccc4ccccc34)c2C1		inconclusive: 39.8 µM [inhibitor, single point]
Cc1cccc(N2CCN(C(=O)Cn3ncc4c3-c3ccccc3OC4)CC2)c1C		inconclusive: 22.4 µM [inhibitor, single point]
Cc1ccc(-c2noc(-c3ccc(N4CCCCC4C)c([N+](=O)[O-])c3)n2)cc1 (stereo not drawn)		inconclusive: 39.8 µM [inhibitor, single point]
CCCCN1CC(Oc2ccccc2C(=O)NC2CC2)C1		inconclusive: 12.6 µM [inhibitor, partial curve, poor fit]
O=C(c1cccc(F)c1)N1CCN(c2cc(-c3ccc(Cl)cc3)[nH]n2)CC1		inconclusive: 39.8 µM [inhibitor, single point]
O=C1N[C@@H]2CCN(C(=O)c3ccc(C(F)(F)F)cc3)[C@@H]2C(=O)N1c1ccc(Oc2ccccc2)cc1	inactive: -14%	
O=C(c1ccc(Cl)s1)N1CCCC2(C1)Nc1cccnc1NC2=NC1CCCC1 (stereo not drawn)	inactive: -17.2%	
O=C(CS(=O)(=O)c1cccc2nsnc12)NCc1ccc(Cl)cc1		inconclusive: 7.08 µM [inhibitor, full curve]
O=C(NCCc1ccccc1)c1ccc2oc(-c3ccncc3)nc2c1	inactive: 29.1%	
Cc1nc2nc(-c3ccc(Cl)cc3Cl)nn2c(C)c1CCC(=O)Nc1ccc(F)cc1		inconclusive: 39.8 µM [inhibitor, single point]
CCc1ccc(NC(=O)c2cc3nc(-c4ccc(C)cc4)cc(C(F)(F)F)n3n2)cc1		inconclusive: 39.8 µM [inhibitor, single point]
O=C(CCN1c2ccccc2Sc2ccccc21)N1CCCC(c2nc(C3CCOCC3)no2)C1 (stereo not drawn)	inactive: -13.3%	
O=C(NC1CCN(c2cc(-c3ccc(F)cc3)[nH]n2)C1)c1cccc(Cl)c1 (stereo not drawn)		inconclusive: 39.8 µM [inhibitor, single point]
c1cncc(CNc2ccnc(-c3ccc4c(c3)OCO4)n2)c1		inconclusive: 15.8 µM [inhibitor, partial curve, poor fit]

Compound	activity change, negative = inhibition	Potency
COc1ccc(NC2CCCN(CC(=O)Nc3ccc(C)cn3)C2)cc1 (stereo not drawn)	inactive: -5.46%	
O=c1c(-c2ccc(Cl)cc2)nc2cnc(N3CCOCC3)nc2n1-c1ccccc1		inconclusive: 3.16 µM [inhibitor, full curve, poor fit]
Cc1ccccc1-c1[nH]nc2ncc(-c3ccccc3C#N)nc12	inactive: 10.3% [at 87.6 µM]	
COc1ccc(C(=O)N2CCCCCCNC(=O)CC2)c(OC)c1		inconclusive: 0.794 µM [inhibitor, full curve, poor fit]
Cc1ccc(Nc2ccnc(N3CCCC3C(=O)NCCCc3ccccc3)n2)cc1 (stereo not drawn)		inconclusive: 39.8 µM [inhibitor, single point]
Cc1ccc(-c2c(C)n3c4c(=O)n(C)c(=O)n(C)c4nc3n2-c2cccc(O)c2)cc1		inconclusive: 2 µM [inhibitor, full curve]
CCO[C@H]1CN(C(=O)CCn2c(C)cc(C)nc2=O)C[C@@H]1O		inconclusive: 5.01 µM [inhibitor, single point]
CCN(C(=O)CN1C(=O)NC(c2ccc(Cl)cc2)C2=C1COC2=O)c1ccccc1 (stereo not drawn)		inconclusive: 8.91 µM [inhibitor, partial curve, poor fit]
Cn1nnc2c(C(N)=O)ncn2c1=O		inconclusive: 42.9 µM [inhibitor, single point]
C=CCNC(=O)N1CC[C@H]2CC(=O)N(CC(N)=O)CC[C@H]2C1		inconclusive: 14.1 µM [inhibitor, partial curve, poor fit]
COc1ccccc1-c1cc(C(=O)NCc2cccc(Cl)c2)nn2cccc12		inconclusive: 1.41 µM [inhibitor, full curve]
CCn1c2c(c(=O)n1Cc1ccccc1)CCN(Cc1c[nH]c3ccccc13)C2		inconclusive: 56.2 µM [inhibitor, single point]
O=C(CC1C(=O)NCCN1CC(c1ccccc1)c1ccccc1)NCc1ccco1 (stereo not drawn)	inactive: -5.69%	
O=C1N[C@@H]2CCN(S(=O)(=O)c3cccc(F)c3)[C@@H]2C(=O)N1c1ccc(F)cc1		inconclusive: 50.1 µM [inhibitor, single point]
O=C(NCc1ccccc1Cl)c1ccc2c(O)c(S(=O)(=O)c3ccccc3)c(=O)[nH]c2c1		inconclusive: 22.4 µM [inhibitor, single point]
COc1ccc(Cl)cc1C(=O)Nc1ccc(-c2nnc3n2CCCCC3)cc1		inconclusive: 1.58 µM [inhibitor, partial curve, poor fit]
CC(=O)c1ccc(NC(=O)CCc2c(C)nc3cc(-c4ccc(Cl)cc4)nn3c2C)cc1		inconclusive: 10 µM [inhibitor, partial curve, poor fit]
COc1ccc(C(=O)N2CCC(N3C[C@H](O)C[C@H]3C(=O)NC3CCCCC3)CC2)cc1F	inactive: -10.5%	
CC(C)Cc1noc(CN(C)C(=O)CC2C(=O)NCCN2CC(C)C)n1 (stereo not drawn)		inconclusive: 8.91 µM [inhibitor, single point]
O=C(NC1CCN(c2cc(-c3cccs3)[nH]n2)CC1)c1ccc(F)c(Cl)c1		inconclusive: 8.91 µM [inhibitor, partial curve, poor fit]
c1cc(-c2cc(-c3ccncc3)c3cncn3c2)c2[nH]ncc2c1		inconclusive: 28.2 µM [inhibitor, partial curve, poor fit]

Compound	activity change, negative = inhibition	Potency
COc1ccc(CCNC(=O)c2cc(-c3ccccc3OC)c3nncn3n2)cc1	inactive: -14.1%	
CCOC(=O)C1=C(CS(=O)(=O)c2ccc(F)cc2)NC(=O)NC1c1ccc(OCC)c(OC)c1 (stereo not drawn)		inconclusive: 6.31 µM [inhibitor, full curve]
O=C(COc1ccccc1)N1CCNc2cnc(Nc3cccc(F)c3)nc2C1	inactive: 7.6% [at 87.6 µM]	
O=C(Nc1ccc(F)cc1F)C1(CCO)CCN(c2ncccn2)C1 (stereo not drawn)	inactive: -1.55%	
Cc1ccc(S(=O)(=O)NCCSc2nnnn2-c2ccc(Cl)c(C(=O)O)c2)cc1		inconclusive: 39.8 µM [inhibitor, single point]
Cc1cc(C)cc(Nc2sc(C(=O)c3ccccc3)c(N)c2S(=O)(=O)c2ccccc2)c1		inconclusive: 2.51 µM [inhibitor, single point]
O=C(c1ccco1)N1CCCC1c1nc(C2CCOCC2)no1 (stereo not drawn)		inconclusive: 7.08 µM [inhibitor, full curve, poor fit]
Cc1cc2nc3n(c(=O)c2n1CC(=O)NCc1ccc(F)cc1)CCCC3		inconclusive: 5.62 µM [inhibitor, full curve, poor fit]
O=C(Nc1ccc(Cl)c(-c2nc3cc(Cl)ccc3o2)c1)c1cc([N+](=O)[O-])ccc1N1CCOCC1		inconclusive: 7.08 µM [inhibitor, single point]
O=C(Cc1cccs1)Nc1ccc2c(c1)CN(Cc1ccccc1F)C(=O)CO2		inconclusive: 1.78 µM [inhibitor, full curve]
CC(=O)Nc1ccc(NC(=O)c2cc3n(n2)CC(c2ccc(Br)cc2)OC3)cc1 (stereo not drawn)		inconclusive: 39.8 µM [inhibitor, single point]
CC(=O)Nc1ccc2c(c1)CCC(=O)N2CC(C)C		inconclusive: 3.16 µM [inhibitor, partial curve, poor fit]
CCOc1ccccc1C(=O)Nc1nc2c(s1)CC(C)CC2 (stereo not drawn)		inconclusive: 39.8 µM [inhibitor, single point]
Cc1ccccc1NC(=O)Cn1c(=O)n(CC2CCC(C(=O)NCCc3ccccc3)CC2)c(=O)c2ccccc21 (stereo not drawn)		inconclusive: 2.51 µM [inhibitor, single point]
CNC(=O)N1CCC(C2CCN(C3CCN(CCc4ccccc4)CC3)C2)CC1 (stereo not drawn)		inconclusive: 25.1 µM [inhibitor, partial curve, poor fit]
CCOc1ccc(NC(=O)CN(c2ccc(Cl)cc2C)S(=O)(=O)c2ccccc2)cc1		inconclusive: 15.8 µM [inhibitor, partial curve, poor fit]
O=C(NC1CCCc2nc(-c3cccnc3)ncc21)c1cn[nH]c1-n1cnnn1 (stereo not drawn)	inactive: 28.1%	
O=C(NC1CCCN(c2cc(-c3ccc(F)cc3)[nH]n2)C1)c1nccc2ccccc12 (stereo not drawn)		inconclusive: 39.8 µM [inhibitor, single point]
COc1cccc(CNC(=O)c2cc(-c3ccc(C)cc3)nc3c2cnn3C)c1		inconclusive: 25.1 µM [inhibitor, partial curve, poor fit]
C#CCNC(=O)[C@@H]1Cc2cn(Cc3cc(C)on3)c3cccc(c23)[C@H](CC(C)C)N1	inactive: 16.1% [at 87.6 µM]	
CCc1noc(-c2cn(C3CCN(C(=O)c4cc(C)ccc4C)CC3)nn2)n1		inconclusive: 3.16 µM [inhibitor, single point]
